From the supplement of paper PMC3334620
In all, about 33,000 sequences were measured (“E-score (-0.5 to 0.5)”: median about -0.012, highest 2% from about 0.27 on). The list shows a part of the results.

Target: T1, Vhr1 (UniProt P40522)
T1 sequence: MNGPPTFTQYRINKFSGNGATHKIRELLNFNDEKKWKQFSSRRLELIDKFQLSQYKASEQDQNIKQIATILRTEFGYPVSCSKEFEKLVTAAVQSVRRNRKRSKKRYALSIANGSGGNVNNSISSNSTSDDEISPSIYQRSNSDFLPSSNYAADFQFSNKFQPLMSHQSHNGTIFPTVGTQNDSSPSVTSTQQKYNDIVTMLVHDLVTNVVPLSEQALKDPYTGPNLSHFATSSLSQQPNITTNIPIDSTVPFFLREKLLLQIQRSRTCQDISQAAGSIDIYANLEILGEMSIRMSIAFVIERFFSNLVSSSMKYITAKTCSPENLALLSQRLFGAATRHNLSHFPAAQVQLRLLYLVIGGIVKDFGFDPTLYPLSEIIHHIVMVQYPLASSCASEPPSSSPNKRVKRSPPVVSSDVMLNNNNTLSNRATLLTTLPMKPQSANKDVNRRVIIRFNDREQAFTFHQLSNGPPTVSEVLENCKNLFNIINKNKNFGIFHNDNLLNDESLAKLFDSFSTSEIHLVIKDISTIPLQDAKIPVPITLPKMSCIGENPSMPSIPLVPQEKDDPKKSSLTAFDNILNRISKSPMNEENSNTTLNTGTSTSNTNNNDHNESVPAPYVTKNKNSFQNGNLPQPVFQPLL
Assay: PBM E-score (8-mer binding enrichment) (E-score (-0.5 to 0.5)); higher = stronger / more preferred TF binding; most listed sequences are background and not binding sites
Conditions: protein concentration: 200 nM; construct: GST-full length
Method in brief: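 Yeast transcription factors, full-length or as DNA-binding domains, were expressed with a GST tag using PURExpress in vitro transcription/translation. At about 100-200 nM they were applied to universal all-10-mer Agilent arrays, double-stranded by primer extension on fresh or once-stripped slides. Fluorescent anti-GST detected bound protein, and masliner normalised the scans. E-scores for ungapped eight-base words, pooled with reverse complements, came from the Universal PBM Analysis Suite.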

Sequence | PBM E-score
AGTTGCCA | -0.126
TGCGAACA | 0.0704
GGGGAAGA | -0.0811
ATCGCTAG | 0.0291
AAAATGAG | -0.0698
CACAGGGG | 0.065
CACTGTGC | 0.168
AATGACGG | 0.164
CAAGTACC | -0.0803
ACGGAGTG | 0.00137
AGCGCCAT | -0.0845
AGATCCCT | -0.142
AACTCTAG | -0.11
AGGTCGGC | -0.0151
CTCCTCGC | -0.138
AGCCGCTC | -0.226
ATATGCGG | 0.0512
CTGCTAAC | -0.116
ACCACACC | 0.151
AAGGAGGT | -0.229
GGGACCCC | -0.157
AGCCGCTG | -0.0556
ACCCGTGA | 0.128
CACCTTCA | -0.066
CACTTGCA | 0.138

Sequence | PBM E-score
CAAGGCGA | 0.00863
GGTGAGAA | -0.0655
ACTCGATC | 0.142
ACTGTGAA | -0.0314
ATGCTATC | 0.0928
CTAAGTGA | 0.044
CAGTTACG | -0.125
TCCAGAAA | -0.0568
ACATTGAG | 0.0142
GACTTAGA | -0.203
CACCCTTC | 0.0327
TTACATAA | 0.138
TCCGCGGA | -0.0458
CAACAAAA | -0.114
CTCCGGAG | 0.161
ACTCTATG | 0.0905
ACGGTCAG | -0.131
AGGAAACG | -0.174
CCCGTAAC | -0.118
TGAGGCAA | -0.0116
AGCAGTAA | 0.116
AGTCAAAT | 0.128
ATGATAGG | 0.0955
AGGGTCCA | -0.172
GCATACGC | -0.219

Sequence | PBM E-score
CCTCGCAA | -0.00415
GCGCGCCA | 0.149
ACATCTAA | -0.0475
AACCCTCG | -0.0706
GTGGTTTA | 0.00241
CAGAGCGA | -0.0311
TTATTCAA | -0.166
AGGGGCGA | 0.113
CGACCCAA | 0.14
GAATTGTC | -0.136
ATCTGAGG | 0.0534
CTCCCGCC | 0.0303
AGCAGAGG | -0.172
ACGTTCTC | -0.191
ATACCCGA | 0.149
AGAGTAGG | -0.0248
ACTCTTGC | -0.0506
CGCTTCAC | -0.111
GGGGAACA | 0.0388
ATGGTTGC | 0.0579
ATGACGTA | -0.0698
CAAGAACG | -0.0604
ATGTTTTC | -0.0358
ATCAAATA | 0.0347
GATGTGCA | 0.123

Sequence | PBM E-score
GCAGCGAA | -0.00828
ATTCTAGG | -0.132
AGGAACAG | -0.125
CTACAGAC | 0.0374
ATCCTAAT | -0.0253
ACCCAGCA | 0.0926
ATCATCTA | 0.15
CCTTGTTC | -0.186
CACCCAGA | 0.0926
CATTGGCG | 0.00375
ATAGTGAC | 0.138
CGCCGCGC | 0.101
TATCGCAA | 0.144
CAGAAGCC | -0.0916
GAGTGAAC | -0.0149
GGAGACAC | 0.163
CACTATAC | 0.042
AATGTGTA | 0.133
AGGGACGG | -0.144
ATACCTGC | -0.0926
ATCGTAAT | 0.176
CCATTCAA | 0.0103
AGCTAATG | -0.0907
CGAGACAA | -0.019
ACTTAACA | -0.0397

Sequence | PBM E-score
AGCTCACG | -0.0664
ACAAAGCA | -0.0014
CGCTACAC | 0.0775
GCAGCGCA | -0.0741
CTTTATCA | -0.157
ATACAAGG | -0.0891
ATGCATCA | 0.27
AAACGCCC | -0.081
CACAACTC | 0.159
CAAACAAG | 0.00087
GCATCTCA | -0.00305
AATGTCAG | 0.0179
CAAAGATC | -0.141
ACTCTCTA | -0.108
GCCGACGC | 0.0232
CCTAGGCC | -0.171
CAAAGGGG | 0.0159
AGATTCAG | -0.0576
AGCCAGCG | 0.138
CGGAGTGA | 0.216
ACTCTCCT | -0.036
ACAGCATA | 0.0587
AGTTTACC | -0.117
ACCGGCAA | -0.0698
GACGACAC | 0.183

Sequence | PBM E-score
CAGATGAA | 0.0161
AACAGCCG | -0.0956
AAGCTCAC | -0.0795
AGATGGCT | 0.0661
CCCCTCGG | -0.156
ACCACGAC | 0.181
GCTTGCGA | 0.295
ATTCATTG | 0.0738
CTGATCCC | -0.0802
CTACATAG | 0.113
GACCCGCC | 0.322
ATAAGTGA | 0.0303
AGCTGCCC | 0.0494
AGCGTAGA | -0.118
AATCAGGA | 0.107
GCCAATAC | -0.136
ATCACATG | 0.139
ACAACGGA | 0.0332
CCCCCTTC | -0.248
CAACATTC | -0.0974
TGCCACAA | 0.0692
CGTTACGC | -0.11
CTAAAAGC | -0.243
AAATGTTC | -0.188
CTTTGAGA | -0.273

Sequence | PBM E-score
ATTCCGCA | -0.0228
AACCCATG | 0.161
AAGAGCAT | -0.179
ACATGGTG | 0.225
ACGGGACC | -0.239
CTCGAGGA | 0.0193
ATGGCAAG | -0.0799
AGTATCAG | 0.017
AGCGCTTC | -0.0413
CCCGAACG | -0.0599
CAAAATGG | -0.0625
TAACGGAA | -0.0153
CACTTGGG | -0.0585
ACCCGGGT | 0.0435
AACTCGAA | -0.242
AGCTCATC | 0.0918
CGCAGTAC | 0.0987
GACGGGCA | -0.0539
TCGCCTAA | 0.0314
CCTAACAG | -0.00688
ACGTTATG | -0.0459
CATGGCTA | 0.224
